The record followed here is PMC9911399, “Two distinct binding modes provide the RNA-binding protein RbFox with extraordinary sequence specificity”.

Residue numbers refer to the chain shown, from its start. This is one part of the list.

Sequences and labels used below:
T1: RBFOX1 RRM (Homo sapiens, UniProt Q9NWB1 109-208)
T1 sequence: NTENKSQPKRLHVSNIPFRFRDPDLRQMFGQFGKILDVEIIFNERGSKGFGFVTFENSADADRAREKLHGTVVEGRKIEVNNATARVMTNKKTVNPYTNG

B1: AUCUCUC (DNA:RNA)
RNA: GGGAGACCGGAAUUCAGAUUGUCCAUCUCUCUUAAAUCCCGUCGUAGCCACCA
DNA 1: CAATCTGAATTCCGGTCTCCC
DNA 2: TGGTGGCTACGACGGGATT
B2: GGUGUUU (DNA:RNA)
RNA: B1 RNA with A25G, U26G, C27U, U28G, C29U, C31U
DNA 1: CAATCTGAATTCCGGTCTCCC
DNA 2: TGGTGGCTACGACGGGATT
B3: AGGCCUU (DNA:RNA)
RNA: B1 RNA with U26G, C27G, U28C, C31U
DNA 1: CAATCTGAATTCCGGTCTCCC
DNA 2: TGGTGGCTACGACGGGATT
B4: CGAUUCU (DNA:RNA)
RNA: B1 RNA with A25C, U26G, C27A, C29U, U30C, C31U
DNA 1: CAATCTGAATTCCGGTCTCCC
DNA 2: TGGTGGCTACGACGGGATT
B5: AAAGACG (DNA:RNA)
RNA: B1 RNA with U26A, C27A, U28G, C29A, U30C, C31G
DNA 1: CAATCTGAATTCCGGTCTCCC
DNA 2: TGGTGGCTACGACGGGATT
B6: CCUACGU (DNA:RNA)
RNA: B1 RNA with A25C, U26C, C27U, U28A, U30G, C31U
DNA 1: CAATCTGAATTCCGGTCTCCC
DNA 2: TGGTGGCTACGACGGGATT
B7: CCGCAGG (DNA:RNA)
RNA: GGGAGACCGGAAUUCAGAUUGUCCCCGCAGGUUAAAUCCCGUCGUAGCCACCA
DNA 1: CAATCTGAATTCCGGTCTCCC
DNA 2: TGGTGGCTACGACGGGATT
B8: AUGCGGC (DNA:RNA)
RNA: B1 RNA with C27G, U28C, C29G, U30G
DNA 1: CAATCTGAATTCCGGTCTCCC
DNA 2: TGGTGGCTACGACGGGATT
B9: CUUGUUC (DNA:RNA)
RNA: B1 RNA with A25C, C27U, U28G, C29U
DNA 1: CAATCTGAATTCCGGTCTCCC
DNA 2: TGGTGGCTACGACGGGATT
B10: GCUGACC (DNA:RNA)
RNA: B7 RNA with C25G, G27U, C28G, G30C, G31C
DNA 1: CAATCTGAATTCCGGTCTCCC
DNA 2: TGGTGGCTACGACGGGATT
B11: CCGUCUC (DNA:RNA)
RNA: B1 RNA with A25C, U26C, C27G
DNA 1: CAATCTGAATTCCGGTCTCCC
DNA 2: TGGTGGCTACGACGGGATT
B12: UUCGGAG (DNA:RNA)
RNA: B1 RNA with A25U, U28G, C29G, U30A, C31G
DNA 1: CAATCTGAATTCCGGTCTCCC
DNA 2: TGGTGGCTACGACGGGATT
B13: AUUCCCG (DNA:RNA)
RNA: B1 RNA with C27U, U28C, U30C, C31G
DNA 1: CAATCTGAATTCCGGTCTCCC
DNA 2: TGGTGGCTACGACGGGATT
B14: UCUUCCG (DNA:RNA)
RNA: B1 RNA with A25U, U26C, C27U, U30C, C31G
DNA 1: CAATCTGAATTCCGGTCTCCC
DNA 2: TGGTGGCTACGACGGGATT
B15: AGGCAUU (DNA:RNA)
RNA: B7 RNA with C25A, C26G, G30U, G31U
DNA 1: CAATCTGAATTCCGGTCTCCC
DNA 2: TGGTGGCTACGACGGGATT
B16: UAAUAGC (DNA:RNA)
RNA: B1 RNA with A25U, U26A, C27A, C29A, U30G
DNA 1: CAATCTGAATTCCGGTCTCCC
DNA 2: TGGTGGCTACGACGGGATT
B17: ACAAAUC (DNA:RNA)
RNA: B1 RNA with U26C, C27A, U28A, C29A
DNA 1: CAATCTGAATTCCGGTCTCCC
DNA 2: TGGTGGCTACGACGGGATT
B18: GCGCAGA (DNA:RNA)
RNA: B7 RNA with C25G, G31A
DNA 1: CAATCTGAATTCCGGTCTCCC
DNA 2: TGGTGGCTACGACGGGATT
B19: CUAAUGC (DNA:RNA)
RNA: B1 RNA with A25C, C27A, U28A, C29U, U30G
DNA 1: CAATCTGAATTCCGGTCTCCC
DNA 2: TGGTGGCTACGACGGGATT
B20: GAAGAGG (DNA:RNA)
RNA: B7 RNA with C25G, C26A, G27A, C28G
DNA 1: CAATCTGAATTCCGGTCTCCC
DNA 2: TGGTGGCTACGACGGGATT
B21: CACGUAA (DNA:RNA)
RNA: B1 RNA with A25C, U26A, U28G, C29U, U30A, C31A
DNA 1: CAATCTGAATTCCGGTCTCCC
DNA 2: TGGTGGCTACGACGGGATT
B22: GCUUUUC (DNA:RNA)
RNA: B1 RNA with A25G, U26C, C27U, C29U
DNA 1: CAATCTGAATTCCGGTCTCCC
DNA 2: TGGTGGCTACGACGGGATT
B23: GCGGUAC (DNA:RNA)
RNA: B7 RNA with C25G, C28G, A29U, G30A, G31C
DNA 1: CAATCTGAATTCCGGTCTCCC
DNA 2: TGGTGGCTACGACGGGATT
B24: UUUAUCC (DNA:RNA)
RNA: B1 RNA with A25U, C27U, U28A, C29U, U30C
DNA 1: CAATCTGAATTCCGGTCTCCC
DNA 2: TGGTGGCTACGACGGGATT
B25: GUCCGGU (DNA:RNA)
RNA: B1 RNA with A25G, U28C, C29G, U30G, C31U
DNA 1: CAATCTGAATTCCGGTCTCCC
DNA 2: TGGTGGCTACGACGGGATT
B26: UAUCUAA (DNA:RNA)
RNA: B7 RNA with C25U, C26A, G27U, A29U, G30A, G31A
DNA 1: CAATCTGAATTCCGGTCTCCC
DNA 2: TGGTGGCTACGACGGGATT
B27: UGGGCCA (DNA:RNA)
RNA: B1 RNA with A25U, U26G, C27G, U28G, U30C, C31A
DNA 1: CAATCTGAATTCCGGTCTCCC
DNA 2: TGGTGGCTACGACGGGATT
B28: AUGGGGG (DNA:RNA)
RNA: B7 RNA with C25A, C26U, C28G, A29G
DNA 1: CAATCTGAATTCCGGTCTCCC
DNA 2: TGGTGGCTACGACGGGATT
B29: AUUGUCA (DNA:RNA)
RNA: B1 RNA with C27U, U28G, C29U, U30C, C31A
DNA 1: CAATCTGAATTCCGGTCTCCC
DNA 2: TGGTGGCTACGACGGGATT
B30: GAGUGUA (DNA:RNA)
RNA: B1 RNA with A25G, U26A, C27G, C29G, C31A
DNA 1: CAATCTGAATTCCGGTCTCCC
DNA 2: TGGTGGCTACGACGGGATT
B31: AAACGUA (DNA:RNA)
RNA: B1 RNA with U26A, C27A, U28C, C29G, C31A
DNA 1: CAATCTGAATTCCGGTCTCCC
DNA 2: TGGTGGCTACGACGGGATT

For the experiment, the target named is T1, RBFOX1 RRM. The experiment in a line: EMSA; HiTS-Eq, 1 nM pool, 10 min; buffer printed only for the single-RNA assays: 10 mM Tris pH 7.5, 150 mM NaCl, 3.4 mM EDTA, 0.001% NP-40, 30 C. Particulars: tags: His6 N-terminal (pET28a); label: 5' 32P. The procedure, abridged: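 Relative association constants, normalised to the cognate motif, were derived by comparing read counts of each RNA species with those of the control reaction. The RNA sequenced was the free fraction, separated by 8% native PAGE after a 10 min equilibration in 50 µL of 1 nM 5′-radiolabelled RNA (7 randomized nucleotides) with increasing concentrations of purified wild-type or mutant RbFox RRM.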
With B1, the binding signal is 0.00233 KA relative to UGCAUGU.

Take B2: the binding signal is 0.0241 KA relative to UGCAUGU.

Consider B3, for which the binding signal was 0.011 KA relative to UGCAUGU.

For the molecule B4, the binding signal is 0.00957 KA relative to UGCAUGU.

Regarding B5, the binding signal is 0.00391 KA relative to UGCAUGU.

Turning to B6, the binding signal is 0.00236 KA relative to UGCAUGU.

Consider B7, for which the binding signal was 0.0108 KA relative to UGCAUGU.

With B8, the binding signal is 0.0126 KA relative to UGCAUGU.

For the molecule B9, the binding signal is 0.0158 KA relative to UGCAUGU.

In the case of B10, the binding signal was 0.0183 KA relative to UGCAUGU.

Regarding B11, the binding signal is 0.0151 KA relative to UGCAUGU.

Take B12: the binding signal was 0.00668 KA relative to UGCAUGU.

As to B13, the binding signal is 0.000266 KA relative to UGCAUGU.

Consider B14, for which the binding signal was 0.00707 KA relative to UGCAUGU.

Regarding B15, the binding signal is 0.0115 KA relative to UGCAUGU.

Take B16: the binding signal is 0.00856 KA relative to UGCAUGU.

Take B17: the binding signal is 0.00194 KA relative to UGCAUGU.

Turning to B18, the binding signal was 0.0118 KA relative to UGCAUGU.

Take B19: the binding signal is 0.0102 KA relative to UGCAUGU.

Regarding B20, the binding signal was 0.0135 KA relative to UGCAUGU.

Turning to B21, the binding signal is 0.00147 KA relative to UGCAUGU.

With B22, the binding signal was 0.0222 KA relative to UGCAUGU.

With B23, the binding signal was 0.012 KA relative to UGCAUGU.

For the molecule B24, the binding signal was 0.00741 KA relative to UGCAUGU.

Take B25: the binding signal was 0.0253 KA relative to UGCAUGU.

In the case of B26, the binding signal was 0.00583 KA relative to UGCAUGU.

Consider B27, for which the binding signal was 0.0205 KA relative to UGCAUGU.

For B28, the binding signal was 0.0141 KA relative to UGCAUGU.

Consider B29, for which the binding signal was 0.00681 KA relative to UGCAUGU.

B30: the binding signal is 0.013 KA relative to UGCAUGU.

In the case of B31, the binding signal was 0.00208 KA relative to UGCAUGU.
